{"source": "PubChem BioAssay AID1508623", "about": "(National Center for Advancing Translational Sciences (NCATS), 2021)", "note": "The campaign covered roughly 48,000 compounds. About 450 (0.94%) were called active. Inconclusive means that the source gave no clear call. Such entries were picked first, then a sample of the others. Calls follow the shape of the dose curve; as a rule, active = well fitted inhibition curve with a large enough effect; inconclusive = small, poorly fitted or top-dose-only effect; inactive = no such curve, though single readings can be large or run the other way. Potencies beside an inconclusive call are fits to weak or partial responses and may not hold up. Potency is read from the fitted curve at half-maximal effect; tags tell the direction and shape of the fitted curve.", "data": [{"assay": "Primary qHTS for Identification of Small Molecule Inhibitors of Huntingtin Promoter Activity; also: nearly all actives have a fitted effect of over 50% in size", "settings": "HEK293 HTT promoter firefly luciferase reporter (activity 0% = vehicle and -100% = no light), 24 h; activity change, negative = inhibition: at 57.5 µM (top of the series)", "procedure,_shortened": "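Quantitative HTS used concentration series of up to 57.5 uM final on HEK293 luciferase reporter cells, 24 h at 37 degrees C. Readout was Dual-Glo firefly luminescence.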", "values": [{"smiles": "COc1cccc(-c2nc(SCC(=O)NCC3CCCO3)c(-c3ccc(Cl)cc3)[nH]2)c1", "note": "(configuration not stated)", "Potency": "inconclusive: 31.6 µM [inhibitor, single point]"}, {"smiles": "Clc1cccc(-n2ncc3c(Nc4ccc5c(c4)OCCO5)ncnc32)c1", "Potency": "inconclusive: 39.8 µM [inhibitor, single point]"}, {"smiles": "COc1ccc(N2CCN(C(=O)Cn3c(-c4cccs4)cc4ccccc43)CC2)cc1", "Potency": "inactive"}, {"smiles": "O=C(Nc1cccc(Cl)c1Cl)c1cc(S(=O)(=O)N2CCCc3ccccc32)ccc1F", "Potency": "inconclusive: 39.8 µM [inhibitor, single point]"}, {"smiles": "COc1cc(OC)c(N(C)C(=O)CSc2c3c(nc4ccc(Cl)cc24)CCCC3)cc1Cl", "Potency": "inconclusive: 22.4 µM [inhibitor, single point]"}, {"smiles": "Cc1ccc(C(=O)Nc2ccc3oc(-c4cc(Br)ccc4Cl)nc3c2)cc1", "Potency": "inconclusive: 15.8 µM [inhibitor, partial curve, poor fit]"}, {"smiles": "CCC(=O)N1CCCc2cc(S(=O)(=O)N3CCC(C(=O)Nc4cccc(Cl)c4)CC3)ccc21", "Potency": "inconclusive: 20 µM [inhibitor, partial curve, poor fit]"}, {"smiles": "CCN1C(=O)c2ccccc2Sc2ccc(NC(=O)c3cccc(C)c3)cc21", "Potency": "inconclusive: 25.1 µM [inhibitor, partial curve, poor fit]"}, {"smiles": "CCC(C)NC(=O)CSCc1nc(-c2ccc(C)cc2)oc1C", "note": "(configuration not stated)", "Potency": "inconclusive: 35.5 µM [inhibitor, single point]"}, {"smiles": "COc1ccccc1NC(=O)CN1C(=O)CCSc2ccccc21", "Potency": "inactive"}, {"smiles": "Cc1ccc(Cl)cc1NC(=O)CSCc1cnn(-c2ccccc2)c1-n1cccc1", "Potency": "inconclusive: 25.1 µM [inhibitor, single point]"}, {"smiles": "Cc1cccc(NS(=O)(=O)c2ccc3c(c2)CCN3C(=O)C2CC2)c1C", "Potency": "inconclusive: 22.4 µM [inhibitor, partial curve, poor fit]"}, {"smiles": "Nc1c(C(=O)Nc2ccc(C(F)(F)F)cc2)sc2nc(-c3cccs3)ccc12", "Potency": "inactive"}, {"smiles": "COc1ccccc1-c1nnc(C2CCN(S(=O)(=O)c3ccc(CC(C)C)cc3)CC2)o1", "Potency": "inconclusive: 39.8 µM [inhibitor, single point]"}, {"smiles": "Cn1cc(C(=O)O)c(=O)c2cc(S(=O)(=O)N3CCOCC3)ccc21", "Potency": "inconclusive: 35.5 µM [inhibitor, partial curve, poor fit]"}, {"smiles": "COc1ccccc1NC(=O)c1oc2ccccc2c1NC(=O)Cc1cccs1", "Potency": "inconclusive: 39.8 µM [inhibitor, single point]"}, {"smiles": "COc1ccc(CCNc2ncnc3onc(-c4ccc(Cl)cc4)c23)c(OC)c1", "Potency": "inconclusive: 35.5 µM [inhibitor, single point]"}, {"smiles": "Cc1ccc(N(CC(O)Cn2c3ccccc3c3ccccc32)S(=O)(=O)c2ccc(F)cc2)cc1", "note": "(configuration not stated)", "Potency": "inconclusive: 31.6 µM [inhibitor, single point]"}, {"smiles": "Cc1ccc(-c2nc3cc(NC(=O)Cc4ccc(Cl)cc4)ccc3o2)cc1", "Potency": "inactive"}, {"smiles": "COc1ccccc1-c1nc2c(c(SCc3cc(C)ccc3C)n1)Cc1c(CO)cnc(C)c1O2", "Potency": "inconclusive: 35.5 µM [inhibitor, partial curve, poor fit]"}, {"smiles": "COc1ccc2oc(=O)c(C(=O)NCCc3c(C)[nH]c4ccc(C)cc34)cc2c1", "Potency": "inconclusive: 39.8 µM [inhibitor, single point]"}, {"smiles": "Cc1ccc(NC(=O)C2CCCN(C(=O)c3cnn(-c4ccccc4)c3-n3cccc3)C2)cc1", "note": "(configuration not stated)", "Potency": "inconclusive: 2.24 µM [inhibitor, full curve, poor fit]"}, {"smiles": "CN(C)c1ccc(O)c2c1C[C@H]1C[C@H]3[C@H](N(C)C)C(=O)C(C(N)=O)=C(O)[C@@]3(O)C(=O)C1=C2O", "Potency": "inactive"}, {"smiles": "Cc1cc(OCC(=O)N(Cc2ccc(N(C)C)cc2)Cc2ccco2)cc(C)c1Cl", "Potency": "inconclusive: 22.4 µM [inhibitor, single point]"}, {"smiles": "COc1ccc(CNC(=O)c2cc3sccc3n2Cc2ccc(F)cc2)cc1", "Potency": "inconclusive: 39.8 µM [inhibitor, single point]"}, {"smiles": "O=C(Nc1noc2ccccc12)c1cccc(Cl)c1Cl", "Potency": "inactive"}, {"smiles": "Cc1c(Cl)cccc1NC(=O)c1cc(S(=O)(=O)N2CCCCC2)cn1C", "Potency": "inconclusive: 39.8 µM [inhibitor, single point]"}, {"smiles": "Cc1ccccc1NC(=O)CSc1nc2ccc(NC(=O)CCc3ccccc3)cc2s1", "Potency": "inactive"}, {"smiles": "COC(=O)c1sccc1S(=O)(=O)N(CC(=O)Nc1ccccc1C)c1ccc(Cl)cc1", "Potency": "inconclusive: 39.8 µM [inhibitor, single point]"}, {"smiles": "Cc1cc(C)nc(-n2nc(C)c3c2N(Cc2ccccc2C)C(=O)CC3c2ccc(Cl)cc2)n1", "note": "(configuration not stated)", "Potency": "inactive"}, {"smiles": "O=C(Nc1ccc(Oc2ccccc2)cc1)c1ccc(F)c(S(=O)(=O)N2CCN(c3ccccc3F)CC2)c1", "Potency": "active: 2 µM"}, {"smiles": "COc1cccc(NC(=O)/C(C#N)=C/c2ccc(-c3ccc(C)cc3)o2)c1", "Potency": "inconclusive: 39.8 µM [inhibitor, single point]"}, {"smiles": "C[C@H](NC(=O)[C@@H](O)c1cc(F)cc(F)c1)C(=O)N[C@@H]1C(=O)N(C)c2ccccc2-c2ccccc21", "Potency": "inactive"}, {"smiles": "CCS(=O)(=O)Nc1ccc2[nH]c(O)c(C(=Nc3ccc(CN4CCCCC4)cc3)c3ccccc3)c2c1", "Potency": "inconclusive: 1.93 µM [inhibitor, full curve]"}, {"smiles": "O=C(Cn1ccc2cc(S(=O)(=O)N3CCCCCC3)ccc21)NCc1cccc(Cl)c1", "Potency": "inconclusive: 25.1 µM [inhibitor, single point]"}, {"smiles": "COc1ccccc1CCNC(=O)C(=O)NCC(c1cccnc1)N1CCN(c2ccccc2)CC1", "note": "(configuration not stated)", "Potency": "active: 12.6 µM"}, {"smiles": "CCc1cccc(-n2nnc(S(=O)(=O)c3ccc(OC)cc3)c2C)c1", "Potency": "inconclusive: 31.6 µM [inhibitor, single point]"}, {"smiles": "Cc1ccc(Cn2cc(CCC(=O)NCC(C)c3ccccc3)c3ccccc32)cc1", "note": "(configuration not stated)", "Potency": "inconclusive: 39.8 µM [inhibitor, single point]"}, {"smiles": "CCn1c(CN2CCC(C)CC2)nc2cc(NC(=O)COc3ccc(Cl)c(C)c3)ccc21", "Potency": "inconclusive: 14.1 µM [inhibitor, partial curve, poor fit]"}, {"smiles": "COc1ccc(-c2nc(CSCC(=O)NCCc3ccccc3)c(C)o2)cc1", "Potency": "inconclusive: 35.5 µM [inhibitor, single point]"}, {"smiles": "CCc1ccc(-n2c(SCc3ccccc3Cl)nc3[nH]ncc3c2=O)cc1", "activity change, negative = inhibition": "inactive: -22.1% [at 11.5 µM]"}, {"smiles": "N#Cc1c(C2CCNCC2)cc(-c2c(O)cccc2OCC2CC2)nc1N", "Potency": "inactive"}, {"smiles": "COc1cccc(NC(=O)c2ccc(-c3nc(COc4ccccc4)c(C)o3)cc2)c1", "Potency": "inconclusive: 7.08 µM [inhibitor, full curve, poor fit]"}, {"smiles": "O=c1cc(-c2ccc(O)c(O)c2)oc2cc(O)cc(O)c12", "Potency": "inactive"}, {"smiles": "O=C(Nc1cccc(Cl)c1)c1ccc2c(c1)CCN2S(=O)(=O)c1ccccc1", "Potency": "inconclusive: 31.6 µM [inhibitor, single point]"}, {"smiles": "O=C(COCc1cc(-c2cccs2)on1)N1CCN(c2cccc(Cl)c2)CC1", "Potency": "inconclusive: 35.5 µM [inhibitor, partial curve, poor fit]"}, {"smiles": "CCn1c(=N)n(CCOc2ccc(Br)cc2)c2ccccc21", "Potency": "inconclusive: 39.8 µM [inhibitor, single point]"}, {"smiles": "CC(C)OCCCNC(=O)Cn1ccc2cc(S(=O)(=O)N3CCCCCC3)ccc21", "Potency": "inconclusive: 39.8 µM [inhibitor, single point]"}, {"smiles": "Cc1oc(-c2ccccc2Cl)nc1Cn1c(SCc2cccc(F)c2)nc2cccnc21", "Potency": "inconclusive: 22.4 µM [inhibitor, single point]"}, {"smiles": "CC(=O)c1cccc(NC(=O)CC(c2ccc(C)cc2)N2Cc3ccccc3C2=O)c1", "note": "(configuration not stated)", "Potency": "inactive"}, {"smiles": "COc1cc2ncc(C(=O)c3ccc(C)cc3)c(N3CCCCC3)c2cc1OC", "Potency": "inconclusive: 35.5 µM [inhibitor, single point]"}, {"smiles": "COc1ccc(Cn2cc(C(=O)c3ccc(C)c(C)c3)c(=O)c3ccccc32)cc1", "Potency": "inconclusive: 25.1 µM [inhibitor, single point]"}, {"smiles": "CCOc1ccc(CCNC(=O)c2cc(C)nc3c2c(C)nn3-c2cccc(F)c2)cc1", "Potency": "inconclusive: 22.4 µM [inhibitor, partial curve, poor fit]"}, {"smiles": "COc1ccc(CNCCC(c2ccc3c(c2)OCO3)c2ccccc2OC)cc1", "note": "(configuration not stated)", "Potency": "inactive"}, {"smiles": "O=C(Cn1cc(S(=O)(=O)Cc2cccc(Cl)c2)c2ccccc21)Nc1ccccc1Cl", "Potency": "inconclusive: 22.4 µM [inhibitor, single point]"}, {"smiles": "CC1CCN(c2nc3ccc(C(=O)NCc4ccccc4Cl)cc3s2)CC1", "Potency": "active: 0.282 µM"}, {"smiles": "COC(=O)Nc1ccc(-c2nc(N3CCOCC3)c3cnn(C4CCN(Cc5cccnc5)CC4)c3n2)cc1", "Potency": "inconclusive: 1.72 µM [inhibitor, full curve]"}, {"smiles": "Cc1ccc(S(=O)(=O)c2nnn3c2nc(NCCc2ccccc2)c2sccc23)cc1", "Potency": "inconclusive: 39.8 µM [inhibitor, single point]"}, {"smiles": "CCc1ccc(S(=O)(=O)c2cn(Cc3ccccc3F)c3cc(OC)c(OC)cc3c2=O)cc1", "Potency": "inconclusive: 39.8 µM [inhibitor, single point]"}, {"smiles": "CCOc1ccc(C2c3[nH]c4ccccc4c3CCN2C(=O)CSCc2ccc(F)cc2)cc1", "note": "(configuration not stated)", "Potency": "inconclusive: 14.1 µM [inhibitor, partial curve, poor fit]"}, {"smiles": "O=C(Cc1ccc(-c2ccc(OCCN3CCOCC3)cc2)cn1)NCc1ccccc1", "Potency": "inconclusive: 0.0343 µM [inhibitor, full curve]"}, {"smiles": "Cc1cc(S(=O)(=O)NCC(c2ccco2)S(=O)(=O)c2cccs2)ccc1F", "note": "(configuration not stated)", "Potency": "inactive"}]}]}
